# The campaign covered roughly 150,000 compounds. About 540 (0.36%) showed an effect of 50% or more. Some of the results follow.
# System: Plasmodium falciparum
# Experiment: Primary screen in NF54 nanoGlo assay, in single point, at 2uM, 72h; a lower Z score goes with more inhibition
# Assay type: functional, Erythrocyte
# Conditions: timepoint 72 hour
Structure (SMILES),% Inhibition [%],Z score
CC[C@@H](c1ccncc1)N(CC)C(=O)c1cc(Cn2cc(C)cn2)on1,-14,2.03
Cc1cc(=O)n(CC(=O)Nc2ccc(N(C)C)cc2)c(-c2ccccc2)n1,-8,1.35
CCc1ncc(CN2CCC3(CCC(=O)N(CCOC)C3)CC2)cn1,-4,0.79
COCc1cc(NC(=O)N2CCC([C@@H]3CCCO3)CC2)ncn1,-8,1.06
Cc1ccc(CN(C)C(=O)C2CCN(c3ccc4nncn4n3)CC2)o1,-18,2.81
CCNS(=O)(=O)C1CCN(c2nnc(C)n2CC2CCOC2)C1 (configuration not stated),-3,0.24
Cc1ccc(N(CC(=O)N2CCCCC2)C(=O)c2cnns2)cc1,-18,2.72
CN(C)[C@H]1CCCCN(C(=O)c2ccc3nonc3c2)C1,-2,0.37
COc1ccccc1N1CCN(C(=O)c2cnn3c(-c4ccc(-c5ccccc5)cc4)ccnc23)CC1,-1,0.19
O=C(C1CCCC1)N1CCN(C(=O)C2CC2c2ccc3c(c2)OCO3)CC1 (configuration not stated),-26,4.43
O=C1[C@H]2CN(S(=O)(=O)c3ccc(F)cc3)CCN2C(=O)N1CCO,-1,0.22
Cc1cc2nc(-c3ccccc3)cc(C(=O)N3C[C@@H](O)C[C@H]3CO)c2cc1C,7,-1.14
CN1CCN(CC2(CS(C)(=O)=O)CC2)c2ccc(Cl)cc21,2,-0.33
O=C(NCC(=O)N1CC2(CC2)Oc2ccccc21)N1CCCC1,-11,1.35
Cc1ncsc1CNC1CCCCC1CCCO (configuration not stated),-7,1.09
COc1ccc([C@@H](CC(=O)NCCN2CCOCC2)c2cn(Cc3ccccc3)c3ccccc23)cc1OCc1ccccc1,-1,0.12
O=C(CC[C@H]1CCCN(c2ccc(C(F)(F)F)cn2)C1)N1CCN(c2ccccn2)CC1,-11,1.65
CNC(=O)[C@@H]1CCCN1S(=O)(=O)c1cccnc1,23,-2.55
CC(C)CNC(=O)C(=O)Nc1cc(Br)ccc1F,-7,1
O=C(Nc1nncs1)[C@H]1CCCN(C(=O)c2ccc(F)cc2Cl)C1,-3,0.29
CC(C)c1nocc1C(=O)NCc1cccc2occc12,0,0.06
O=C(NC[C@H](O)c1ccc(-c2cccs2)s1)c1ccsc1,10,-1.36

Structure (SMILES),% Inhibition [%],Z score
Cn1cc(CNc2ncc(Br)c3ccccc23)cn1,-5,0.7
O=C(CO)Nc1ccc(OC(F)(F)F)c(Br)c1,22,-2.81
C1=CC[C@H]2CN(c3ccncc3)C[C@H]2C1,-18,1.67
CC(C)c1ccc([C@@H](C)CC(=O)NCC#N)cc1,-5,0.73
O=C(Nc1cc(F)ccc1F)N1CCc2ccccc2[C@@H]1c1ccc(Cl)cc1,-4,0.52
CS(=O)(=O)C1CC2CCC(C1)N2S(=O)(=O)Cc1ccccc1 (configuration not stated),-11,1.34
Cc1nc2c(C#N)cnn2c(C)c1CCC(=O)N1CCC[C@H]1c1nnc2ccccn12,-14,1.28
O=C(NCc1ccc(N2CCOCC2)cc1)c1cn(C[C@H]2CCCO2)nn1,-4,0.51
CC[C@@H](Cc1ccccc1Br)C(=O)NCc1ncc[nH]1,-5,0.61
NS(=O)(=O)CCN1CCN(C(=O)c2cccc([C@H]3CCOC3)c2)CC1,-2,0.29
O=C(Nc1ccc(-n2cnnn2)cc1)c1coc(-c2ccccc2)n1,-6,1.22
CN1N=C(C(=O)NCc2ccc(F)c(Cn3ccnc3)c2)CCC1=O,-3,0.59
O=C(CCc1ccccc1)Nc1ccc2[nH]ncc2c1,-10,1.48
O=C(NC1CCCCCC1)c1csc2c1CCCC2,-14,1.82
COc1ccccc1CN1C(=O)N(c2cccc(C(F)(F)F)c2)[C@H](N(O)C(=O)Nc2cccc(C(F)(F)F)c2)C1(C)C,0,0
CO[C@@H]1C[C@@H](c2nc(C)n[nH]2)N(C(=O)CCc2cccc3c2OCO3)C1,-8,1.04
Cc1ccc(-c2noc3nc(C)cc(C(=O)N4CCCCCC4)c23)cc1,26,-2.98
CC[C@H](NCC(=O)N(CC)c1ccccc1)c1ccncc1,1,-0.22
COC(=O)N1CCc2ccc(F)cc2[C@@H]1C(=O)NCCc1ccccc1OC,-3,0.57
COc1cc2nc(N(C)C)c(CNCCN3CCOCC3)cc2c(OC)c1OC,-2,0.31
Cn1cc(N2CC[C@H](NC(=O)C(=O)Nc3c(F)cccc3F)C2)cn1,-2,0.31
Nc1nc2c(c(NCCc3ccc(S(N)(=O)=O)cc3)n1)CCCC2,11,-1.39

Structure (SMILES),% Inhibition [%],Z score
O=C(c1ccc2c(c1)OCO2)[C@H]1CCCN(C(=O)CCc2cnccn2)C1,10,-1.32
CC(C)c1ccc(CN2CC[C@@H](n3c(=O)[nH]c4cccnc43)C2)cc1,-5,0.96
N#Cc1c(NC(=O)c2ccncc2)sc2c1CCCCC2,-6,0.72
COc1cc(F)cc(NC(=O)NC[C@H](C)c2nc(C)cs2)c1,-21,2.37
O=C(Cc1noc2ccccc12)N1CCC(n2cnc3ncccc3c2=O)CC1,-9,1.61
O=C(CC(=O)NC(=O)c1ccc(Cl)cc1Cl)NC(=O)c1ccc(Cl)cc1Cl,-1,0.21
O=S1(=O)C[C@H](N2CCN(c3ccccc3F)CC2)[C@@H](S(=O)(=O)c2ccccc2)C1,41,-5.2
O=C(Nc1nc(-c2ccccc2)cs1)c1cocn1,-6,0.89
CCOC1(c2nc(Cc3conc3C)no2)CCCC1,6,-0.78
O=C(c1ccnc(-c2cc(F)cc3cccnc23)c1)N1CCOCC1,-13,2
O=C(Cn1c(-c2cnccn2)nc2ccccc21)Nc1nc(-c2ccco2)cs1,-3,0.55
C[C@@H](Cn1cncn1)NC(=O)c1ncc(F)cc1F,9,-1.23
O=C1c2ccccc2[C@@H]2C[C@H](O)c3cccn3N12,-16,1.88
COc1ccccc1CCCN1C(=O)C(C)C(C)C1=O (configuration not stated),-5,0.71
Cc1nc(CC(=O)NCc2ccccc2F)sc1C(=O)NCc1ccccc1,-12,1.63
O=C(Nc1ccc2oc(C3CC3)nc2c1)C(=O)N[C@H]1CCOc2ccccc21,0,-0.01
Nc1nc2c(c(NCCOc3ccc(Cl)cc3)n1)CCNCC2,-3,0.58
O=c1[nH]c(-c2cnccn2)nc2cc3ccccc3cc12,-8,0.78
O=C(NCC(=O)N1CCC1)c1cccc(F)c1,7,-1.11
Cc1ocnc1-c1nc(-c2ccccn2)no1,0,-0.04
CC[C@@H]1NC(=O)N(CCCOC(C)c2ccccc2)C1=O (some centres not stated),-1,0.1
CCn1nccc1C=C(C)c1ncccn1,1,-0.23

Structure (SMILES),% Inhibition [%],Z score
CCc1nnsc1C(=O)NC1CCCCCC1,37,-5.05
Cc1cccc(-c2noc([C@@H]3CCCN3)n2)c1,-3,0.48
FC(F)(F)Oc1ccc(C2(NCc3cn[nH]c3)CC2)cc1,2,-0.17
CN(C)c1nc2c(c(N3CCCC3)n1)CCN(Cc1cnn(C)c1)CC2,3,-0.35
COCCCn1ccc(-c2cccc(-c3cnccn3)c2)n1,-9,1.23
C[C@H]1C(=O)N(C)CCN1c1ncnc2c(F)cccc12,0,0.03
Cc1cc([C@H](C)NC(=O)Nc2ccc(N3CCCC3)c(F)c2)c(C)s1,9,-1.64
Cc1nc(CN2CCN(C(=O)c3ccccn3)[C@H]3CS(=O)(=O)C[C@H]32)no1,8,-1.55
Cc1cnc(Cn2cnc(-c3ccccc3)c2-c2cc(C)c(C)o2)cn1,-14,2.09
CC(C)CC1(C(=O)NCc2nnc3n2CCN(C)C3=O)CCCC1,-13,1.57
CCn1cnnc1CNC(=O)c1ccc2c(c1)OCO2,0,0.01
CCOC(=O)CC1(NC(=O)N2CCN(CC)c3ncccc32)CCCCC1,-22,2.53
CO[C@](C)(C(=O)O)C(=O)N1CCc2cc(-c3ccccc3)ccc21,-7,0.92
Cc1nc(Nc2ccc3c(c2)OCCO3)cc(-c2ccccc2)n1,5,-0.89
O=C(N[C@@H]1COCC[C@@H]1OCc1ccccc1)c1cccc(F)c1F,-2,0.39
O=C(NCCn1c(=O)[nH]c2ccsc2c1=O)[C@H]1CCS(=O)(=O)C1,-2,0.39
Cc1cc(C)c(CNC(=O)N2CCCCCCC2)cn1,-6,1.06
O=C(NCCC1=CCCCC1)c1cc2n(n1)CCCO2,-21,3.27
Cc1cccc2c1cc(C(=O)N1CC[C@@]3(CCCN(CCO)C3=O)C1)n2C,-8,1.38
CCCn1cc(NC(=O)C(=O)Nc2ccnn2-c2ccncc2)cn1,-7,0.69

# Reference: ChEMBL document CHEMBL4888484, “Replenishing the malaria drug discovery pipeline: Screening and hit evaluation of the MMV Hit Generation Library 1 (HGL1) against asexual blood stage Plasmodium falciparum ,using a nano luciferase reporter read-out” (2022)
